# In the supplement of paper PMC8728848:
# The list shows a part of the results.
# B1: BDCA-2 (Homo sapiens), Q8WTT0 (protein)
# chain: MVPEEEPQDREKGLWWFQLKVWSMAVVSILLLSVCFTVSSVVPHNFMYSKTVKRLSKLREYQQYHPSLTCVMEGKDIEDWSCCPTPWTSFQSSCYFISTGMQSWTKSQKNCSVMGADLVVINTREEQDFIIQNLKRNSSYFLGLSDPGGRRHWQWVDQTPYNENVTFWHSGEPNNLDERCAIINFRSSEEWGWNDIHCHVPQKSICKMKKIYI
# Assays:
# Assay in all cases: glycan array binding signal (z-score within array); higher = stronger binding
# Details in all cases: glycan notation: IUPAC condensed, linker removed
# [1] = biological target: Fuc(a1-2)Gal(b1-4)GlcNAc(b1-3)Gal(b1-4)GlcNAc(b1-2)Man(a1-3)[Fuc(a1-2)Gal(b1-4)GlcNAc(b1-3)Gal(b1-4)GlcNAc(b1-2)Man(a1-6)]Man(b1-4)GlcNAc(b1-4)GlcNAc
# Outline: (§1)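 Glycan array binding is given as a within-array Z-score, which can be read as non-binding when negative. The arrays, 3228 of them, came from the Consortium for Functional Glycomics database and were retained only where the protein sequence was available. Z-scores were averaged across arrays of the same protein sequence at different concentrations or buffers and across linkers.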
# [2] = biological target: Fuc(a1-2)Gal(b1-4)GlcNAc(b1-3)Gal(b1-4)GlcNAc(b1-3)Gal(b1-4)GlcNAc
# Outline: as §1
# [3] = biological target: Fuc(a1-2)Gal(b1-4)GlcNAc(b1-3)GalNAc
# Outline: as §1
# [4] = biological target: Fuc(a1-2)Gal(b1-4)GlcNAc(b1-3)[Fuc(a1-2)Gal(b1-4)GlcNAc(b1-6)]GalNAc
# Outline: as §1
# [5] = biological target: Fuc(a1-2)Gal(b1-4)GlcNAc(b1-3)[Fuc(a1-3)[Gal(b1-4)]GlcNAc(b1-6)]Gal(b1-4)Glc
# Outline: as §1
# [6] = biological target: Fuc(a1-2)Gal(b1-4)GlcNAc(b1-6)GalNAc
# Outline: as §1
# [7] = biological target: Fuc(a1-2)Gal(b1-4)GlcNAc6S
# Outline: as §1
# [8] = biological target: Fuc(a1-2)Gal(b1-4)[Fuc(a1-3)]GlcNAc
# Outline: as §1
# [9] = biological target: Fuc(a1-2)Gal(b1-4)[Fuc(a1-3)]GlcNAc(b1-2)Man(a1-3)[Fuc(a1-2)Gal(b1-4)[Fuc(a1-3)]GlcNAc(b1-2)Man(a1-6)]Man(b1-4)GlcNAc(b1-4)[Fuc(a1-6)]GlcNAc
# Outline: as §1
# [10] = biological target: Fuc(a1-2)Gal(b1-4)[Fuc(a1-3)]GlcNAc(b1-2)[Fuc(a1-2)Gal(b1-4)[Fuc(a1-3)]GlcNAc(b1-4)]Man(a1-3)[Fuc(a1-2)Gal(b1-4)[Fuc(a1-3)]GlcNAc(b1-2)Man(a1-6)]Man(b1-4)GlcNAc(b1-4)GlcNAc
# Outline: as §1
# [11] = biological target: Fuc(a1-2)Gal(b1-4)[Fuc(a1-3)]GlcNAc(b1-3)Gal(b1-4)[Fuc(a1-3)]GlcNAc
# Outline: as §1
# [12] = biological target: Fuc(a1-2)Gal(b1-4)[Fuc(a1-3)]GlcNAc(b1-3)Gal(b1-4)[Fuc(a1-3)]GlcNAc(b1-3)Gal(b1-4)[Fuc(a1-3)]GlcNAc
# Outline: as §1
# [13] = biological target: Fuc(a1-2)Gal(b1-4)[Fuc(a1-3)]GlcNAc(b1-3)GalNAc
# Outline: as §1
# [14] = biological target: Fuc(a1-2)Gal(b1-4)[Fuc(a1-3)]GlcNAc(b1-3)[Neu5Ac(a2-6)Gal(b1-4)GlcNAc(b1-6)]Gal(b1-4)Glc
# Outline: as §1
# [15] = biological target: Fuc(a1-2)Gal3S(b1-4)GlcNAc
# Outline: as §1
# [16] = biological target: Fuc(a1-2)Gal6S(b1-3)GlcNAc
# Outline: as §1
# [17] = biological target: Fuc(a1-2)Gal6S(b1-3)GlcNAc6S
# Outline: as §1
# Fuc(a1-2)Gal6S(b1-4)Glc = biological target: Fuc(a1-2)Gal6S(b1-4)Glc
# Outline: as §1
# [18] = biological target: Fuc(a1-2)Gal6S(b1-4)Glc6S
# Outline: as §1
# Fuc(a1-2)GlcNAc = biological target: Fuc(a1-2)GlcNAc
# Outline: as §1
# Fuc(a1-2)[Gal(a1-3)]Gal = biological target: Fuc(a1-2)[Gal(a1-3)]Gal
# Outline: as §1
# [19] = biological target: Fuc(a1-2)[Gal(a1-3)]Gal(b1-3)GalNAc
# Outline: as §1
# [20] = biological target: Fuc(a1-2)[Gal(a1-3)]Gal(b1-3)GalNAc(b1-3)Gal(a1-4)Gal(b1-4)Glc
# Outline: as §1
# [21] = biological target: Fuc(a1-2)[Gal(a1-3)]Gal(b1-3)GlcNAc
# Outline: as §1
# [22] = biological target: Fuc(a1-2)[Gal(a1-3)]Gal(b1-3)GlcNAc(b1-2)Man(a1-3)[Fuc(a1-2)[Gal(a1-3)]Gal(b1-3)GlcNAc(b1-2)Man(a1-6)]Man(b1-4)GlcNAc(b1-4)GlcNAc
# Outline: as §1
# [23] = biological target: Fuc(a1-2)[Gal(a1-3)]Gal(b1-3)GlcNAc(b1-2)Man(a1-3)[Fuc(a1-2)[Gal(a1-3)]Gal(b1-3)GlcNAc(b1-2)Man(a1-6)]Man(b1-4)GlcNAc(b1-4)[Fuc(a1-6)]GlcNAc
# Outline: as §1
# [24] = biological target: Fuc(a1-2)[Gal(a1-3)]Gal(b1-3)GlcNAc(b1-3)GalNAc
# Outline: as §1
# [25] = biological target: Fuc(a1-2)[Gal(a1-3)]Gal(b1-3)GlcNAc(b1-6)GalNAc
# Outline: as §1
# [26] = biological target: Fuc(a1-2)[Gal(a1-3)]Gal(b1-4)Glc
# Outline: as §1
# [27] = biological target: Fuc(a1-2)[Gal(a1-3)]Gal(b1-4)GlcNAc
# Outline: as §1
binder,measurement,setting,value
B1,glycan array binding signal (z-score),[1],-0.144
same,glycan array binding signal (z-score),[2],-0.307
same,glycan array binding signal (z-score),[3],-0.147
same,glycan array binding signal (z-score),[4],-0.079
same,glycan array binding signal (z-score),[5],-0.171
same,glycan array binding signal (z-score),[6],-0.153
same,glycan array binding signal (z-score),[7],-0.165
same,glycan array binding signal (z-score),[8],-0.074
same,glycan array binding signal (z-score),[9],-0.13
same,glycan array binding signal (z-score),[10],-0.137
same,glycan array binding signal (z-score),[11],-0.223
same,glycan array binding signal (z-score),[12],-0.192
same,glycan array binding signal (z-score),[13],-0.077
same,glycan array binding signal (z-score),[14],-0.177
same,glycan array binding signal (z-score),[15],-0.178
same,glycan array binding signal (z-score),[16],-0.143
same,glycan array binding signal (z-score),[17],0.012
same,glycan array binding signal (z-score),Fuc(a1-2)Gal6S(b1-4)Glc,-0.175
same,glycan array binding signal (z-score),[18],-0.178
same,glycan array binding signal (z-score),Fuc(a1-2)GlcNAc,-0.409
same,glycan array binding signal (z-score),Fuc(a1-2)[Gal(a1-3)]Gal,-0.099
same,glycan array binding signal (z-score),[19],-0.106
same,glycan array binding signal (z-score),[20],-0.11
same,glycan array binding signal (z-score),[21],-0.03
same,glycan array binding signal (z-score),[22],-0.15
same,glycan array binding signal (z-score),[23],-0.13
same,glycan array binding signal (z-score),[24],-0.103
same,glycan array binding signal (z-score),[25],-0.161
same,glycan array binding signal (z-score),[26],-0.113
same,glycan array binding signal (z-score),[27],-0.008
